The record followed here is ChEMBL document CHEMBL4888484, “Replenishing the malaria drug discovery pipeline: Screening and hit evaluation of the MMV Hit Generation Library 1 (HGL1) against asexual blood stage Plasmodium falciparum ,using a nano luciferase reporter read-out” (2022).

For orientation: % Inhibition means the change of the read-out against control, counted positive when it falls.

Hit rate of the full screen: of about 150,000 compounds, about 540 (0.36%) showed an effect of 50% or more. Some of the results follow.

In the assay the test system is Plasmodium falciparum. Put plainly: Primary screen in NF54 nanoGlo assay, in single point, at 2uM, 72h; a lower Z score goes with more inhibition. The settings on record: timepoint 72 hour. In kind it is functional, Erythrocyte.
For `O=C1NC(=O)C2(CCN(C(=O)c3noc4c3CCCC4)CC2)N1`, the “% Inhibition” value stood at 30% and the Z score is recorded as -3.26.

Consider `Cc1ccc(CNC(=O)c2ccc(-n3nc(C(F)(F)F)c4c3CCCC4)cc2)cc1`, for which the “% Inhibition” value is reported as -7% and the Z score was found to be 0.85.

For the molecule `O=C(O)[C@@H]1CCCCN1Cc1ccc2occc2c1`, the “% Inhibition” value is given as -17% and the Z score was found to be 2.26.

Take `OCC#Cc1ccc(OC(F)(F)F)cn1`: the “% Inhibition” value is listed as -8% and the Z score is on record as 1.19.

Take `CCCC[C@H](NC(=O)N1CCN(c2ncc[nH]c2=O)CC1)c1cccnc1`: the “% Inhibition” value is on record as -9% and the Z score is reported as 1.83.

Regarding `CCn1ccc(NC(=O)c2ccco2)n1`, the “% Inhibition” value is recorded as -3% and the Z score was 0.49.

On to `COC(=O)C(C)(C)NC(=O)c1ccccc1`, for which the “% Inhibition” value is reported as 33% and the Z score was -3.71.

For `COc1cc([C@H]2CC(=O)Nc3c2ncn3-c2cccnc2)ccc1O`, the “% Inhibition” value was found to be 0% and the Z score is -0.06.

`O=C(Nc1ccc(N2CCOCC2)cc1)C(C1CC=CCC1)N(Cc1cccnc1)C(=O)Cn1nnc2ccccc21` (stereo unspecified): the “% Inhibition” value is 35% and the Z score is -3.99.

Take `CN(CCC[C@H]1CCCO1)CCn1cnc2ccccc21`: the “% Inhibition” value is -26% and the Z score is on record as 2.83.

With `O=C(N[C@H]1CCN(c2ccc(C(F)(F)F)cn2)C1)c1cnccn1`, the “% Inhibition” value was -12% and the Z score turned out to be 2.32.

As to `Cc1nc(CNC(=O)[C@H]2CCC(=O)N(Cc3ccccn3)C2)sc1C`, the “% Inhibition” value was 12% and the Z score is on record as -2.02.

With `COC(=O)[C@@H]1C[C@H](O)CCN1Cc1ccccc1C#Cc1ccccc1`, the “% Inhibition” value was -1% and the Z score is 0.12.

Take `Cc1ccncc1NC(=O)[C@@]1(C)CC1(Cl)Cl`: the “% Inhibition” value is reported as -12% and the Z score is 1.61.

In the case of `O=C(CCC(=O)N1CCCCCC1)NCC[C@H]1CCCOC1`, the “% Inhibition” value was -13% and the Z score amounted to 1.48.

Regarding `CCc1cc(NC2CCOC3(CCOC3)C2)nc(C)n1` (stereo unspecified), the “% Inhibition” value is given as -6% and the Z score amounted to 1.2.

Regarding `COC(=O)C1CC(Oc2ccccc2F)CN1C(=O)NC(C)(C)C` (stereo unspecified), the “% Inhibition” value is -3% and the Z score is 0.52.

Take `O=C(NCCc1ccc(Cl)cc1)c1ccc(Cn2c(=O)c3ccccc3n(Cc3ccccc3Cl)c2=O)cc1`: the “% Inhibition” value was -2% and the Z score is 0.32.

As for `COc1cccc(-c2nccn2[C@H]2CCc3[nH]ncc3C2)c1OC`, the “% Inhibition” value was -13% and the Z score was 1.56.

In the case of `O=C1CC[C@H](C(=O)N2CC=C(c3ccc(Cl)cc3)CC2)CN1`, the “% Inhibition” value is recorded as -5% and the Z score is reported as 0.9.

For the molecule `O=C(NCc1ccc2c(c1)OCO2)c1cc(-c2ccc(F)cc2)ns1`, the “% Inhibition” value was -5% and the Z score stood at 0.6.

As for `N#Cc1ccc(C(=O)Nc2ccc3n(c2=O)C[C@H]2C[C@@H]3CN(C(=O)c3ccccn3)C2)cc1`, the “% Inhibition” value was -4% and the Z score was 0.44.

As to `Cc1nc(-c2ccco2)ccc1C(=O)N1CCN(CCO)CC1`, the “% Inhibition” value is given as -3% and the Z score is 0.35.

For the molecule `O=C(NCCN1CCCC1)C1CCN(c2cnc(N3CCCC3)nc2)CC1`, the “% Inhibition” value is listed as -16% and the Z score amounted to 1.81.

Take `CCC(C)(C)CNCC1CCOC1c1c(C)nn(C)c1C` (stereo unspecified): the “% Inhibition” value stood at 24% and the Z score is given as -2.74.

Take `CC(NCC1CCN(S(C)(=O)=O)C1)c1ccsc1` (stereo unspecified): the “% Inhibition” value was -10% and the Z score was determined as 1.34.

For `O=C(O)[C@@H]1CCCCN1Cc1ccsc1Cl`, the “% Inhibition” value was -1% and the Z score came out at 0.18.

For `COc1ccc(CN2CCNC(=O)[C@@H]2CC(=O)NCc2ccc3c(c2)CCN3C)c(C)c1C`, the “% Inhibition” value was -5% and the Z score is given as 0.78.

For the molecule `Cc1cccc([C@H](C)NC(=O)COC(C)C)n1`, the “% Inhibition” value is -17% and the Z score amounted to 1.72.

Regarding `CCCC[C@@]1(O)COC2(CN(C(=O)c3ccn(CC)n3)C2)C1`, the “% Inhibition” value is reported as -4% and the Z score turned out to be 0.61.

Regarding `CCN(CC)c1ncc2c(n1)CC[C@H](C(=O)NCCC1CCN(C)CC1)C2`, the “% Inhibition” value stood at 12% and the Z score is -2.21.

On to `O=C(COC[C@H]1CCCO1)Nc1nccc(-c2cncc(F)c2)n1`, for which the “% Inhibition” value worked out at 3% and the Z score was -0.63.

As to `COc1ccc(-c2cc(NC(=O)c3cc(-c4ccccc4)on3)n([C@H]3CCS(=O)(=O)C3)n2)cc1OC`, the “% Inhibition” value is -6% and the Z score amounted to 0.74.

Take `CCOc1cccc2c1OCC(=O)N(c1ccc(F)cc1C)C2`: the “% Inhibition” value is reported as -11% and the Z score was 1.24.

Consider `O=C(Cc1ccsc1)NCc1cccnc1Oc1ccccc1`, for which the “% Inhibition” value was 29% and the Z score is on record as -3.27.

For `Cc1cc(C)nc(CCNC(=O)[C@H]2CC(=O)N(C)C2(C)C)n1`, the “% Inhibition” value is listed as -3% and the Z score came out at 0.4.

On to `Cc1cccc(C[C@@H](CNC(=O)c2ccncc2)C(=O)O)c1`, for which the “% Inhibition” value is given as 1% and the Z score is recorded as -0.06.

For `CC(C)CC(=O)Nc1nc(C(=O)NCc2ccncc2)cs1`, the “% Inhibition” value was -1% and the Z score turned out to be 0.18.

As to `CN1C(=O)c2ccc(NC(=O)C3CCC3)cc2C1=O`, the “% Inhibition” value is 7% and the Z score is -1.01.

`Cc1n[nH]c(C2CN(C(C)C(=O)Nc3ncc(C)s3)CCO2)n1` (stereo unspecified): the “% Inhibition” value is recorded as -1% and the Z score is on record as 0.18.

As for `COc1ccc(C)cc1NC(=O)CC1CCN(S(=O)(=O)c2ccc3c(c2)CCN3C(C)=O)CC1`, the “% Inhibition” value is on record as -4% and the Z score was 0.38.

As for `C[C@H]1CN(CC(=O)N(CCC#N)Cc2ccco2)CCO1`, the “% Inhibition” value is reported as -4% and the Z score is given as 0.55.

With `Cc1cc(C)cc(NC(=O)CCc2ccc(S(=O)(=O)N3CCCC3)cc2)c1`, the “% Inhibition” value is -1% and the Z score is on record as 0.26.
